Results reported in the supplement of paper PMC8728848.
This is one part of the list.

Experiments:
Assay in all cases: glycan array binding signal (z-score within array); higher = stronger binding
Conditions in all cases: glycan notation: IUPAC condensed, linker removed
[1] = target: Gal(b1-4)GlcNAc(b1-3)Gal(b1-4)GlcNAc(b1-3)Gal(b1-4)GlcNAc(b1-3)Gal(b1-4)GlcNAc(b1-2)Man(a1-3)[Gal(b1-4)GlcNAc(b1-3)Gal(b1-4)GlcNAc(b1-3)Gal(b1-4)GlcNAc(b1-3)Gal(b1-4)GlcNAc(b1-2)Man(a1-6)]Man(b1-4)GlcNAc(b1-4)GlcNAc
Summary of the method: (§1)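 Negative Z-scores can be read as non-binding. The Z-score is calculated within each array and then averaged across arrays of one protein sequence at different concentrations or buffers and across linkers. Arrays, 3228 in all, were curated from the Consortium for Functional Glycomics database and kept only where the protein sequence was available.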

[2] = target: Gal(b1-4)GlcNAc(b1-3)Gal(b1-4)GlcNAc(b1-3)Gal(b1-4)GlcNAc(b1-3)Gal(b1-4)GlcNAc(b1-2)Man(a1-3)[Gal(b1-4)GlcNAc(b1-3)Gal(b1-4)GlcNAc(b1-3)Gal(b1-4)GlcNAc(b1-3)Gal(b1-4)GlcNAc(b1-2)Man(a1-6)]Man(b1-4)GlcNAc(b1-4)[Fuc(a1-6)]GlcNAc
Summary of the method: as §1

[3] = target: Gal(b1-4)GlcNAc(b1-3)Gal(b1-4)GlcNAc(b1-3)Gal(b1-4)GlcNAc(b1-3)Gal(b1-4)GlcNAc(b1-2)[Gal(b1-4)GlcNAc(b1-3)Gal(b1-4)GlcNAc(b1-3)Gal(b1-4)GlcNAc(b1-3)Gal(b1-4)GlcNAc(b1-6)]Man(a1-6)[Gal(b1-4)GlcNAc(b1-3)Gal(b1-4)GlcNAc(b1-3)Gal(b1-4)GlcNAc(b1-3)Gal(b1-4)GlcNAc(b1-2)Man(a1-3)]Man(b1-4)GlcNAc(b1-4)[Fuc(a1-6)]GlcNAc
Summary of the method: as §1

[4] = target: Gal(b1-4)GlcNAc(b1-3)Gal(b1-4)GlcNAc(b1-3)Gal(b1-4)GlcNAc(b1-3)Gal(b1-4)GlcNAc(b1-3)Gal(b1-4)GlcNAc(b1-2)Man(a1-3)[Gal(b1-4)GlcNAc(b1-3)Gal(b1-4)GlcNAc(b1-3)Gal(b1-4)GlcNAc(b1-3)Gal(b1-4)GlcNAc(b1-3)Gal(b1-4)GlcNAc(b1-2)Man(a1-6)]Man(b1-4)GlcNAc(b1-4)GlcNAc
Summary of the method: as §1

[5] = target: Gal(b1-4)GlcNAc(b1-3)Gal(b1-4)GlcNAc(b1-3)Gal(b1-4)GlcNAc(b1-3)Gal(b1-4)GlcNAc(b1-3)Gal(b1-4)GlcNAc(b1-2)Man(a1-3)[Gal(b1-4)GlcNAc(b1-3)Gal(b1-4)GlcNAc(b1-3)Gal(b1-4)GlcNAc(b1-3)Gal(b1-4)GlcNAc(b1-3)Gal(b1-4)GlcNAc(b1-2)Man(a1-6)]Man(b1-4)GlcNAc(b1-4)[Fuc(a1-6)]GlcNAc
Summary of the method: as §1

[6] = target: Gal(b1-4)GlcNAc(b1-3)Gal(b1-4)GlcNAc(b1-3)Gal(b1-4)GlcNAc(b1-3)Gal(b1-4)GlcNAc(b1-3)Gal(b1-4)GlcNAc(b1-2)[Gal(b1-4)GlcNAc(b1-3)Gal(b1-4)GlcNAc(b1-3)Gal(b1-4)GlcNAc(b1-3)Gal(b1-4)GlcNAc(b1-3)Gal(b1-4)GlcNAc(b1-6)]Man(a1-6)[Gal(b1-4)GlcNAc(b1-3)Gal(b1-4)GlcNAc(b1-3)Gal(b1-4)GlcNAc(b1-3)Gal(b1-4)GlcNAc(b1-3)Gal(b1-4)GlcNAc(b1-2)Man(a1-3)]Man(b1-4)GlcNAc(b1-4)[Fuc(a1-6)]GlcNAc
Summary of the method: as §1

[7] = target: Gal(b1-4)GlcNAc(b1-3)Gal(b1-4)GlcNAc(b1-3)Gal(b1-4)GlcNAc(b1-3)Gal(b1-4)GlcNAc(b1-3)Gal(b1-4)GlcNAc(b1-3)Gal(b1-4)GlcNAc(b1-2)Man(a1-3)[Gal(b1-4)GlcNAc(b1-3)Gal(b1-4)GlcNAc(b1-3)Gal(b1-4)GlcNAc(b1-3)Gal(b1-4)GlcNAc(b1-3)Gal(b1-4)GlcNAc(b1-3)Gal(b1-4)GlcNAc(b1-2)Man(a1-6)]Man(b1-4)GlcNAc(b1-4)GlcNAc
Summary of the method: as §1

[8] = target: Gal(b1-4)GlcNAc(b1-3)Gal(b1-4)GlcNAc(b1-3)GalNAc
Summary of the method: as §1

[9] = target: Gal(b1-4)GlcNAc(b1-3)Gal(b1-4)GlcNAc(b1-3)[Gal(b1-4)GlcNAc(b1-3)Gal(b1-4)GlcNAc(b1-6)]GalNAc
Summary of the method: as §1

[10] = target: Gal(b1-4)GlcNAc(b1-3)Gal(b1-4)GlcNAc(b1-6)[Gal(b1-3)]GalNAc
Summary of the method: as §1

[11] = target: Gal(b1-4)GlcNAc(b1-3)Gal(b1-4)[Fuc(a1-3)]GlcNAc(b1-3)Gal(b1-4)[Fuc(a1-3)]GlcNAc
Summary of the method: as §1

[12] = target: Gal(b1-4)GlcNAc(b1-3)GalNAc
Summary of the method: as §1

[13] = target: Gal(b1-4)GlcNAc(b1-3)[Fuc(a1-3)GlcNAc(b1-6)]Gal(b1-4)Glc
Summary of the method: as §1

[14] = target: Gal(b1-4)GlcNAc(b1-3)[Gal(b1-4)GlcNAc(b1-6)]Gal(b1-4)GlcNAc
Summary of the method: as §1

[15] = target: Gal(b1-4)GlcNAc(b1-3)[GlcNAc(b1-6)]Gal(b1-4)GlcNAc
Summary of the method: as §1

[16] = target: Gal(b1-4)GlcNAc(b1-6)Gal(b1-4)GlcNAc
Summary of the method: as §1

[17] = target: Gal(b1-4)GlcNAc(b1-6)GalNAc
Summary of the method: as §1

[18] = target: Gal(b1-4)GlcNAc(b1-6)[Gal(b1-3)]GalNAc
Summary of the method: as §1

[19] = target: Gal(b1-4)GlcNAc(b1-6)[Gal(b1-4)GlcNAc(b1-3)]GalNAc
Summary of the method: as §1

Gal(b1-4)GlcNAc6P = target: Gal(b1-4)GlcNAc6P
Summary of the method: as §1

Gal(b1-6)Gal = target: Gal(b1-6)Gal
Summary of the method: as §1

Gal3S(b1-3)GalNAc = target: Gal3S(b1-3)GalNAc
Summary of the method: as §1

Gal3S(b1-3)GlcNAc = target: Gal3S(b1-3)GlcNAc
Summary of the method: as §1

B1: MSMEG3662-2a (Mycobacterium smegmatis), A0QYH7_MYCS2 (protein)
chain: MGDTLTAGQKLERGGSLQSGNGAYTLTLQDDGNLVLYARDKAVWSTGTNGQDVVRAEVQTDGNFVLYTAEKPVWHTDTKGKKEVKLVLQDDRNLVLYAKDGPAWSSKTDTTEPPPPAPEPEKEAEVAPAAAEEAAPAPVAEPAPAEPAPAAPPPAPPAPRTYTVVSGDTLWAIAERFYGDGSKYQQIADASGIANPDLIHPGQVLTIP
- glycan array binding signal (z-score) [1]: -0.076
- glycan array binding signal (z-score) [2]: -0.074
- glycan array binding signal (z-score) [3]: -0.104
- glycan array binding signal (z-score) [4]: -0.039
- glycan array binding signal (z-score) [5]: 0.159
- glycan array binding signal (z-score) [6]: 0.003
- glycan array binding signal (z-score) [7]: 0.013
- glycan array binding signal (z-score) [8]: -0.097
- glycan array binding signal (z-score) [9]: 0.038
- glycan array binding signal (z-score) [10]: -0.095
- glycan array binding signal (z-score) [11]: -0.124
- glycan array binding signal (z-score) [12]: -0.068
- glycan array binding signal (z-score) [13]: -0.168
- glycan array binding signal (z-score) [14]: -0.108
- glycan array binding signal (z-score) [15]: -0.019
- glycan array binding signal (z-score) [16]: -0.162
- glycan array binding signal (z-score) [17]: -0.097
- glycan array binding signal (z-score) [18]: -0.107
- glycan array binding signal (z-score) [19]: -0.11
- glycan array binding signal (z-score) (Gal(b1-4)GlcNAc6P): -0.056
- glycan array binding signal (z-score) (Gal(b1-6)Gal): -0.152
- glycan array binding signal (z-score) (Gal3S(b1-3)GalNAc): 0.052
- glycan array binding signal (z-score) (Gal3S(b1-3)GlcNAc): -0.111
